# Experimental data as given in the supplement of paper PMC8728848.
# This is one part of the list.
# B1: SBD-G4S3-Fc (protein)
# chain: MASIPSSASVQLDSYNYDGSTFSGKIYVKNIAYSKKVTVVYADGSDNWNNNGNIIAASFSGPISGSNYEYWTFSASVKGIKEFYIKYEVSGKTYYDNNNSANYQVSTGGGGSGGGGSGGGGSEFVPRDCGCKPCICTVPEVSSVFIFPPKPKDVLTITLTPKVTCVVVDISKDDPEVQFSWFVDDVEVHTAQTQPREEQFNSTFRSVSELPIMHQDWLNGKEFKCRVNSAAFPAPIEKTISKTKGRPKAPQVYTIPPPKEQMAKDKVSLTCMITDFFPEDITVEWQWNGQPAENYKNTQPIMDTDGSYFVYSKLNVQKSNWEAGNTFTCSVLHEGLHNHHTEKSLSHSPGAA
# Columns and labels:
# Assay in all cases: glycan array binding signal (z-score within array); higher = stronger binding
# Details in all cases: glycan notation: IUPAC condensed, linker removed
# [1] = target: GlcNAc(b1-3)Gal(b1-4)Glc
# How it was run: (§1)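 Columns mapping to the same glycan were averaged after glycan names were converted to IUPAC-condensed notation. The data come from 3228 arrays in the Consortium for Functional Glycomics database, limited to those with an available protein sequence. Binding is reported as a within-array Z-score averaged across arrays of one protein sequence and across linkers.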
# [2] = target: GlcNAc(b1-3)Gal(b1-4)GlcNAc
# How it was run: as §1
# [3] = target: GlcNAc(b1-3)Gal(b1-4)GlcNAc(b1-2)Man(a1-3)[GlcNAc(b1-3)Gal(b1-4)GlcNAc(b1-2)Man(a1-6)]Man(b1-4)GlcNAc(b1-4)GlcNAc
# How it was run: as §1
# [4] = target: GlcNAc(b1-3)Gal(b1-4)GlcNAc(b1-2)Man(a1-3)[GlcNAc(b1-3)Gal(b1-4)GlcNAc(b1-2)Man(a1-6)]Man(b1-4)GlcNAc(b1-4)[Fuc(a1-6)]GlcNAc
# How it was run: as §1
# [5] = target: GlcNAc(b1-3)Gal(b1-4)GlcNAc(b1-2)[GlcNAc(b1-3)Gal(b1-4)GlcNAc(b1-6)]Man(a1-6)[GlcNAc(b1-3)Gal(b1-4)GlcNAc(b1-2)Man(a1-3)]Man(b1-4)GlcNAc(b1-4)GlcNAc
# How it was run: as §1
# [6] = target: GlcNAc(b1-3)Gal(b1-4)GlcNAc(b1-3)Gal(b1-4)GlcNAc
# How it was run: as §1
# [7] = target: GlcNAc(b1-3)Gal(b1-4)GlcNAc(b1-3)Gal(b1-4)GlcNAc(b1-2)Man(a1-3)[GlcNAc(b1-3)Gal(b1-4)GlcNAc(b1-3)Gal(b1-4)GlcNAc(b1-2)Man(a1-6)]Man(b1-4)GlcNAc(b1-4)GlcNAc
# How it was run: as §1
# [8] = target: GlcNAc(b1-3)Gal(b1-4)GlcNAc(b1-3)Gal(b1-4)GlcNAc(b1-2)Man(a1-3)[GlcNAc(b1-3)Gal(b1-4)GlcNAc(b1-3)Gal(b1-4)GlcNAc(b1-2)Man(a1-6)]Man(b1-4)GlcNAc(b1-4)[Fuc(a1-6)]GlcNAc
# How it was run: as §1
# [9] = target: GlcNAc(b1-3)Gal(b1-4)GlcNAc(b1-3)Gal(b1-4)GlcNAc(b1-2)[GlcNAc(b1-3)Gal(b1-4)GlcNAc(b1-3)Gal(b1-4)GlcNAc(b1-6)]Man(a1-6)[GlcNAc(b1-3)Gal(b1-4)GlcNAc(b1-3)Gal(b1-4)GlcNAc(b1-2)Man(a1-3)]Man(b1-4)GlcNAc(b1-4)[Fuc(a1-6)]GlcNAc
# How it was run: as §1
# [10] = target: GlcNAc(b1-3)Gal(b1-4)GlcNAc(b1-3)Gal(b1-4)GlcNAc(b1-3)Gal(b1-4)GlcNAc(b1-2)Man(a1-3)[GlcNAc(b1-3)Gal(b1-4)GlcNAc(b1-3)Gal(b1-4)GlcNAc(b1-3)Gal(b1-4)GlcNAc(b1-2)Man(a1-6)]Man(b1-4)GlcNAc(b1-4)GlcNAc
# How it was run: as §1
# [11] = target: GlcNAc(b1-3)Gal(b1-4)GlcNAc(b1-3)Gal(b1-4)GlcNAc(b1-3)Gal(b1-4)GlcNAc(b1-2)Man(a1-3)[GlcNAc(b1-3)Gal(b1-4)GlcNAc(b1-3)Gal(b1-4)GlcNAc(b1-3)Gal(b1-4)GlcNAc(b1-2)Man(a1-6)]Man(b1-4)GlcNAc(b1-4)[Fuc(a1-6)]GlcNAc
# How it was run: as §1
# [12] = target: GlcNAc(b1-3)Gal(b1-4)GlcNAc(b1-3)Gal(b1-4)GlcNAc(b1-3)Gal(b1-4)GlcNAc(b1-2)[GlcNAc(b1-3)Gal(b1-4)GlcNAc(b1-3)Gal(b1-4)GlcNAc(b1-3)Gal(b1-4)GlcNAc(b1-6)]Man(a1-6)[GlcNAc(b1-3)Gal(b1-4)GlcNAc(b1-3)Gal(b1-4)GlcNAc(b1-3)Gal(b1-4)GlcNAc(b1-2)Man(a1-3)]Man(b1-4)GlcNAc(b1-4)[Fuc(a1-6)]GlcNAc
# How it was run: as §1
# [13] = target: GlcNAc(b1-3)Gal(b1-4)GlcNAc(b1-3)Gal(b1-4)GlcNAc(b1-3)Gal(b1-4)GlcNAc(b1-3)Gal(b1-4)GlcNAc(b1-2)Man(a1-3)[GlcNAc(b1-3)Gal(b1-4)GlcNAc(b1-3)Gal(b1-4)GlcNAc(b1-3)Gal(b1-4)GlcNAc(b1-3)Gal(b1-4)GlcNAc(b1-2)Man(a1-6)]Man(b1-4)GlcNAc(b1-4)GlcNAc
# How it was run: as §1
# [14] = target: GlcNAc(b1-3)Gal(b1-4)GlcNAc(b1-3)Gal(b1-4)GlcNAc(b1-3)Gal(b1-4)GlcNAc(b1-3)Gal(b1-4)GlcNAc(b1-2)Man(a1-3)[GlcNAc(b1-3)Gal(b1-4)GlcNAc(b1-3)Gal(b1-4)GlcNAc(b1-3)Gal(b1-4)GlcNAc(b1-3)Gal(b1-4)GlcNAc(b1-2)Man(a1-6)]Man(b1-4)GlcNAc(b1-4)[Fuc(a1-6)]GlcNAc
# How it was run: as §1
# [15] = target: GlcNAc(b1-3)Gal(b1-4)GlcNAc(b1-3)Gal(b1-4)GlcNAc(b1-3)Gal(b1-4)GlcNAc(b1-3)Gal(b1-4)GlcNAc(b1-2)[GlcNAc(b1-3)Gal(b1-4)GlcNAc(b1-3)Gal(b1-4)GlcNAc(b1-3)Gal(b1-4)GlcNAc(b1-3)Gal(b1-4)GlcNAc(b1-6)]Man(a1-6)[GlcNAc(b1-3)Gal(b1-4)GlcNAc(b1-3)Gal(b1-4)GlcNAc(b1-3)Gal(b1-4)GlcNAc(b1-3)Gal(b1-4)GlcNAc(b1-2)Man(a1-3)]Man(b1-4)GlcNAc(b1-4)[Fuc(a1-6)]GlcNAc
# How it was run: as §1
# [16] = target: GlcNAc(b1-3)Gal(b1-4)GlcNAc(b1-3)Gal(b1-4)GlcNAc(b1-3)GalNAc
# How it was run: as §1
# [17] = target: GlcNAc(b1-3)Gal(b1-4)GlcNAc(b1-3)GalNAc
# How it was run: as §1
# [18] = target: GlcNAc(b1-3)Gal(b1-4)GlcNAc(b1-3)[GlcNAc(b1-3)Gal(b1-4)GlcNAc(b1-3)]GalNAc
# How it was run: as §1
# [19] = target: GlcNAc(b1-3)Gal(b1-4)GlcNAc(b1-6)[Gal(b1-3)]GalNAc
# How it was run: as §1
# [20] = target: GlcNAc(b1-3)Gal(b1-4)GlcNAc(b1-6)[GlcNAc(b1-3)Gal(b1-3)]GalNAc
# How it was run: as §1
# [21] = target: GlcNAc(b1-3)Gal(b1-4)GlcNAc(b1-6)[GlcNAc(b1-3)]Gal(b1-4)GlcNAc
# How it was run: as §1
# [22] = target: GlcNAc(b1-3)GalNAc
# How it was run: as §1
# [23] = target: GlcNAc(b1-3)Man
# How it was run: as §1
# [24] = target: GlcNAc(b1-3)[GlcNAc(b1-4)][GlcNAc(b1-6)]GlcNAc
# How it was run: as §1
# [25] = target: GlcNAc(b1-3)[GlcNAc(b1-6)]Gal(b1-4)GlcNAc
# How it was run: as §1
# [26] = target: GlcNAc(b1-3)[GlcNAc(b1-6)]GalNAc
# How it was run: as §1
# [27] = target: GlcNAc(b1-4)Gal(b1-4)GlcNAc
# How it was run: as §1
# [28] = target: GlcNAc(b1-4)GlcNAc
# How it was run: as §1
# [29] = target: GlcNAc(b1-4)GlcNAc(b1-4)GlcNAc
# How it was run: as §1
# [30] = target: GlcNAc(b1-4)GlcNAc(b1-4)GlcNAc(b1-4)GlcNAc(b1-4)GlcNAc
# How it was run: as §1
# [31] = target: GlcNAc(b1-4)GlcNAc(b1-4)GlcNAc(b1-4)GlcNAc(b1-4)GlcNAc(b1-4)GlcNAc
# How it was run: as §1
# [32] = target: GlcNAc(b1-4)[GlcNAc(b1-6)]GalNAc
# How it was run: as §1
# [33] = target: GlcNAc(b1-6)Gal(b1-4)GlcNAc
# How it was run: as §1
# [34] = target: GlcNAc(b1-6)GalNAc
# How it was run: as §1
# [35] = target: GlcNAc6S(b1-3)Gal(b1-4)GlcNAc
# How it was run: as §1
# [36] = target: Kdn(a2-3)Gal(b1-3)GalNAc
# How it was run: as §1
# [37] = target: Kdn(a2-3)Gal(b1-3)GlcNAc
# How it was run: as §1
binder,measurement,setting,value
B1,glycan array binding signal (z-score),[1],-0.298
same,glycan array binding signal (z-score),[2],-0.186
same,glycan array binding signal (z-score),[3],-0.193
same,glycan array binding signal (z-score),[4],-0.174
same,glycan array binding signal (z-score),[5],0.413
same,glycan array binding signal (z-score),[6],-0.257
same,glycan array binding signal (z-score),[7],3.18
same,glycan array binding signal (z-score),[8],1.28
same,glycan array binding signal (z-score),[9],0.454
same,glycan array binding signal (z-score),[10],-0.039
same,glycan array binding signal (z-score),[11],1.91
same,glycan array binding signal (z-score),[12],-0.036
same,glycan array binding signal (z-score),[13],0.191
same,glycan array binding signal (z-score),[14],1
same,glycan array binding signal (z-score),[15],-0.078
same,glycan array binding signal (z-score),[16],-0.065
same,glycan array binding signal (z-score),[17],-0.075
same,glycan array binding signal (z-score),[18],0.059
same,glycan array binding signal (z-score),[19],-0.034
same,glycan array binding signal (z-score),[20],-0.032
same,glycan array binding signal (z-score),[21],-0.141
same,glycan array binding signal (z-score),[22],-0.174
same,glycan array binding signal (z-score),[23],0.149
same,glycan array binding signal (z-score),[24],0.107
same,glycan array binding signal (z-score),[25],-0.361
same,glycan array binding signal (z-score),[26],0.067
same,glycan array binding signal (z-score),[27],-0.117
same,glycan array binding signal (z-score),[28],-0.319
same,glycan array binding signal (z-score),[29],-0.358
same,glycan array binding signal (z-score),[30],-0.26
same,glycan array binding signal (z-score),[31],-0.372
same,glycan array binding signal (z-score),[32],0.069
same,glycan array binding signal (z-score),[33],0.105
same,glycan array binding signal (z-score),[34],-0.224
same,glycan array binding signal (z-score),[35],-0.273
same,glycan array binding signal (z-score),[36],-0.036
same,glycan array binding signal (z-score),[37],-0.263
